Laboratory results from the supplement of paper PMC8728848.
This is one part of the list.

Key:
Test in all cases: glycan array binding signal (z-score within array); higher = stronger binding
Conditions in all cases: glycan notation: IUPAC condensed, linker removed
[1] = target: Man(a1-2)Man(a1-2)Man(a1-3)Man
Summary of the method: (§1)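 Glycan array data came from 3228 arrays in the Consortium for Functional Glycomics database, and only arrays with an available protein sequence were kept. Glycan names were put into IUPAC-condensed notation, and columns mapping to the same glycan were averaged. The binding signal is a within-array Z-score, averaged across arrays of one protein sequence run at different concentrations or buffers and across linkers. A negative Z-score can be read as non-binding.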

[2] = target: Man(a1-2)Man(a1-2)Man(a1-6)[Man(a1-3)]Man
Summary of the method: as §1

Man(a1-2)Man(a1-3)Man = target: Man(a1-2)Man(a1-3)Man
Summary of the method: as §1

[3] = target: Man(a1-2)Man(a1-3)[Man(a1-2)Man(a1-6)]Man
Summary of the method: as §1

[4] = target: Man(a1-2)Man(a1-3)[Man(a1-2)Man(a1-6)]Man(a1-6)[Man(a1-2)Man(a1-2)Man(a1-3)]Man(b1-4)GlcNAc(b1-4)GlcNAc
Summary of the method: as §1

[5] = target: Man(a1-2)Man(a1-3)[Man(a1-6)]Man(a1-6)[Man(a1-2)Man(a1-3)]Man(b1-4)GlcNAc(b1-4)GlcNAc
Summary of the method: as §1

[6] = target: Man(a1-2)Man(a1-6)[Man(a1-3)]Man(a1-6)[Man(a1-2)Man(a1-2)Man(a1-3)]Man(b1-4)GlcNAc(b1-4)GlcNAc
Summary of the method: as §1

Man(a1-3)[Man(a1-6)]Man = target: Man(a1-3)[Man(a1-6)]Man
Summary of the method: as §1

[7] = target: Man(a1-3)[Man(a1-6)]Man(a1-6)[Man(a1-2)Man(a1-3)]Man(b1-4)GlcNAc(b1-4)GlcNAc
Summary of the method: as §1

[8] = target: Man(a1-3)[Man(a1-6)]Man(a1-6)[Man(a1-3)]Man(b1-4)GlcNAc(b1-4)GlcNAc
Summary of the method: as §1

[9] = target: Man(a1-3)[Man(a1-6)]Man(b1-4)GlcNAc(b1-4)GlcNAc
Summary of the method: as §1

Man(b1-4)GlcNAc = target: Man(b1-4)GlcNAc
Summary of the method: as §1

Neu5Ac(a2-3)Gal = target: Neu5Ac(a2-3)Gal
Summary of the method: as §1

[10] = target: Neu5Ac(a2-3)Gal(b1-3)GalNAc
Summary of the method: as §1

[11] = target: Neu5Ac(a2-3)Gal(b1-3)GalNAc(b1-3)Gal(a1-4)Gal(b1-4)Glc
Summary of the method: as §1

[12] = target: Neu5Ac(a2-3)Gal(b1-3)GalNAc(b1-3)Gal(b1-4)GlcNAc
Summary of the method: as §1

[13] = target: Neu5Ac(a2-3)Gal(b1-3)GalNAc(b1-4)[Neu5Ac(a2-3)]Gal(b1-4)Glc
Summary of the method: as §1

[14] = target: Neu5Ac(a2-3)Gal(b1-3)GalNAc6S
Summary of the method: as §1

[15] = target: Neu5Ac(a2-3)Gal(b1-3)GlcNAc
Summary of the method: as §1

[16] = target: Neu5Ac(a2-3)Gal(b1-3)GlcNAc6S
Summary of the method: as §1

[17] = target: Neu5Ac(a2-3)Gal(b1-3)[Fuc(a1-4)]GlcNAc
Summary of the method: as §1

[18] = target: Neu5Ac(a2-3)Gal(b1-3)[Fuc(a1-4)]GlcNAc(b1-3)Gal(b1-4)[Fuc(a1-3)]GlcNAc
Summary of the method: as §1

[19] = target: Neu5Ac(a2-3)Gal(b1-3)[Neu5Ac(a2-3)Gal(b1-4)]GlcNAc
Summary of the method: as §1

[20] = target: Neu5Ac(a2-3)Gal(b1-3)[Neu5Ac(a2-6)]GalNAc
Summary of the method: as §1

Neu5Ac(a2-3)Gal(b1-4)Glc = target: Neu5Ac(a2-3)Gal(b1-4)Glc
Summary of the method: as §1

[21] = target: Neu5Ac(a2-3)Gal(b1-4)GlcNAc
Summary of the method: as §1

[22] = target: Neu5Ac(a2-3)Gal(b1-4)GlcNAc(b1-3)Gal(b1-4)GlcNAc
Summary of the method: as §1

[23] = target: Neu5Ac(a2-3)Gal(b1-4)GlcNAc(b1-3)Gal(b1-4)GlcNAc(b1-3)Gal(b1-4)GlcNAc
Summary of the method: as §1

[24] = target: Neu5Ac(a2-3)Gal(b1-4)GlcNAc(b1-3)Gal(b1-4)[Fuc(a1-3)]GlcNAc
Summary of the method: as §1

[25] = target: Neu5Ac(a2-3)Gal(b1-4)GlcNAc6S
Summary of the method: as §1

[26] = target: Neu5Ac(a2-3)Gal(b1-4)[Fuc(a1-3)]GlcNAc
Summary of the method: as §1

[27] = target: Neu5Ac(a2-3)Gal(b1-4)[Fuc(a1-3)]GlcNAc(b1-3)Gal
Summary of the method: as §1

[28] = target: Neu5Ac(a2-3)Gal(b1-4)[Fuc(a1-3)]GlcNAc(b1-3)Gal(b1-4)GlcNAc
Summary of the method: as §1

[29] = target: Neu5Ac(a2-3)Gal(b1-4)[Fuc(a1-3)]GlcNAc(b1-3)Gal(b1-4)[Fuc(a1-3)]GlcNAc(b1-3)Gal(b1-4)[Fuc(a1-3)]GlcNAc
Summary of the method: as §1

B1: CLEC-6 (Homo sapiens), Q8WXI8 (protein)
chain: MGLEKPQSKLEGGMHPQLIPSVIAVVFILLLSVCFIASCLVTHHNFSRCKRGTGVHKLEHHAKLKCIKEKSELKSAEGSTWNCCPIDWRAFQSNCYFPLTDNKTWAESERNCSGMGAHLMTISTEAEQNFIIQFLDRRLSYFLGLRDENAKGQWRWVDQTPFNPRRVFWHKNEPDNSQGENCVVLVYNQDKWAWNDVPCNFEASRICKIPGTTLN
Q: With B1 as the binder, how does the “glycan array binding signal (z-score)” value [1] read?
A: 1.94

Q: And the “glycan array binding signal (z-score)” value [2]?
A: -0.405

Q: What about the “glycan array binding signal (z-score)” value (Man(a1-2)Man(a1-3)Man) of the same binder?
A: -0.084

Q: What about the “glycan array binding signal (z-score)” value [3] of the same binder?
A: -0.217

Q: What about the “glycan array binding signal (z-score)” value [4] of the same binder?
A: -0.213

Q: And the “glycan array binding signal (z-score)” value [5]?
A: -0.286

Q: And the “glycan array binding signal (z-score)” value [6]?
A: -0.155

Q: What about the “glycan array binding signal (z-score)” value (Man(a1-3)[Man(a1-6)]Man) of the same binder?
A: -0.366

Q: And the “glycan array binding signal (z-score)” value [7]?
A: -0.185

Q: What about the “glycan array binding signal (z-score)” value [8] of the same binder?
A: -0.02

Q: What about the “glycan array binding signal (z-score)” value [9] of the same binder?
A: -0.199

Q: What about the “glycan array binding signal (z-score)” value (Man(b1-4)GlcNAc) of the same binder?
A: -0.211

Q: What about the “glycan array binding signal (z-score)” value (Neu5Ac(a2-3)Gal) of the same binder?
A: -0.212

Q: And the “glycan array binding signal (z-score)” value [10]?
A: 0.005

Q: And the “glycan array binding signal (z-score)” value [11]?
A: -0.144

Q: What about the “glycan array binding signal (z-score)” value [12] of the same binder?
A: -0.257

Q: What about the “glycan array binding signal (z-score)” value [13] of the same binder?
A: -0.302

Q: What about the “glycan array binding signal (z-score)” value [14] of the same binder?
A: -0.077

Q: And the “glycan array binding signal (z-score)” value [15]?
A: -0.033

Q: And the “glycan array binding signal (z-score)” value [16]?
A: -0.23

Q: And the “glycan array binding signal (z-score)” value [17]?
A: -0.133

Q: What about the “glycan array binding signal (z-score)” value [18] of the same binder?
A: -0.255

Q: And the “glycan array binding signal (z-score)” value [19]?
A: -0.008

Q: What about the “glycan array binding signal (z-score)” value [20] of the same binder?
A: 0.051

Q: And the “glycan array binding signal (z-score)” value (Neu5Ac(a2-3)Gal(b1-4)Glc)?
A: 0.296

Q: What about the “glycan array binding signal (z-score)” value [21] of the same binder?
A: -0.213

Q: What about the “glycan array binding signal (z-score)” value [22] of the same binder?
A: -0.185

Q: What about the “glycan array binding signal (z-score)” value [23] of the same binder?
A: -0.122

Q: What about the “glycan array binding signal (z-score)” value [24] of the same binder?
A: -0.35

Q: What about the “glycan array binding signal (z-score)” value [25] of the same binder?
A: -0.144

Q: And the “glycan array binding signal (z-score)” value [26]?
A: -0.341

Q: And the “glycan array binding signal (z-score)” value [27]?
A: -0.265

Q: What about the “glycan array binding signal (z-score)” value [28] of the same binder?
A: -0.109

Q: What about the “glycan array binding signal (z-score)” value [29] of the same binder?
A: -0.153
